# In PMC4242493:
# The list shows a part of the results. The list includes weakly bound sequences.
# Target: MaxL homodimer (UniProt P61244)
# Assay: universal protein-binding microarray (PBM)
# Details: PBS-based mixture, 10 nM His-tagged protein dimer, 2% milk, 200 ng/uL BSA, 50 ng/uL salmon testes DNA, 0.02% TX-100; detection with Alexa 488 anti-His …; high values mean tight binding; most listed sequences are background and not binding sites; double strand, one strand shown
# UniProt P61244, sequence (P61244 whole entry): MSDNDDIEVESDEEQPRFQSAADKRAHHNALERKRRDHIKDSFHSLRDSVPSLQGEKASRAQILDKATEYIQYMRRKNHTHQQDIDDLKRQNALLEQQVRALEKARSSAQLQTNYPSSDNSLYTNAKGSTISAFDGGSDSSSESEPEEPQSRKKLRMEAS
row,Sequence,binding signal (normalized occupancy)
1,GAAAGGGA,0.0738
2,GATTACAA,0.0738
3,CTGGGGTA,0.0774
4,AGAGCCCT,0.07
5,CACGGTCG,0.0692
6,ATGTAGCG,0.0794
7,CACGAGTC,0.0906
8,CTGTCTAC,0.0705
9,TAGTTTAA,0.0713
10,ACTGCCCC,0.0751
11,CATTCTGC,0.0713
12,CTTGCTCC,0.0703
13,AGTGATGA,0.0766
14,AAGGGATT,0.0727
15,ATTTCCCC,0.0768
16,ATGAAATC,0.0738
17,ATCTCAAT,0.0775
18,CCCGTGGC,0.0811
19,CCTACCCG,0.0752
20,TACCCTCA,0.076
21,CTAATATC,0.0788
22,CGCACCTC,0.0755
23,CGGCCTCC,0.0696
24,CTGTCAAC,0.0747
25,ATCGCAAG,0.0733

row,Sequence,binding signal (normalized occupancy)
1,ACAAGGCC,0.0794
2,TATGGGAA,0.0791
3,CAGGGGTC,0.0733
4,GGTTTACA,0.0767
5,ACCACATA,0.0854
6,AATTTGGT,0.0725
7,CGATATTC,0.0696
8,CGATTCGA,0.0744
9,ACAATTAC,0.0798
10,ATCTAGAA,0.0751
11,TATTGAAA,0.0766
12,AGAACTGC,0.0718
13,CCAGGCCC,0.0736
14,CCAACATC,0.0806
15,GATAGACC,0.0792
16,ACTGTTGC,0.0719
17,AGTGCGGA,0.0714
18,AGAGGGAT,0.0764
19,AGAAGTGA,0.0777
20,CGCTACCG,0.0768
21,AAGAGCCT,0.0711
22,GCCTAAAC,0.0686
23,GATAATCC,0.0777
24,CCCGTTCA,0.0789
25,CGGGAAAG,0.0686

row,Sequence,binding signal (normalized occupancy)
1,GGCCATCA,0.0767
2,ATCCGTGA,0.0767
3,CTCACTGC,0.0713
4,CTCGAGGC,0.0764
5,CATGTAGC,0.0826
6,AAATGCTC,0.0794
7,AAGGTAGG,0.078
8,AGCGGACC,0.0695
9,CGGCCCAG,0.0685
10,AATCACGC,0.0974
11,CGGGTTGC,0.0677
12,AGGGTACC,0.0703
13,CTGACAGC,0.071
14,ACCAATGA,0.0767
15,TAATACCA,0.0792
16,GGTAGGCA,0.0784
17,TCGGACAA,0.0734
18,CGTGACAG,0.0844
19,AGCAGTAC,0.0766
20,GATACAAC,0.0773
21,ACGTTAGG,0.0857
22,CTCGAGAG,0.0744
23,ACGTTAGT,0.0741
24,ACGATTAT,0.0841
25,CCTAAAAC,0.0725

row,Sequence,binding signal (normalized occupancy)
1,AAAGTACG,0.0698
2,TGCTGCAA,0.0784
3,CGCCTTAG,0.0698
4,ATTGTCGA,0.0742
5,CTCGTTTC,0.0748
6,CAAAAGGA,0.0709
7,ATTAGAAC,0.0811
8,CCAGAGCA,0.069
9,AGTGAATA,0.0777
10,CTAGTGCA,0.0807
11,AATAGAGA,0.0773
12,CACATGGA,0.162
13,CAATAGTA,0.0769
14,ATCCCACG,0.093
15,AGGGAGTA,0.0754
16,GGAAAGAA,0.0743
17,TCGTTCCA,0.0775
18,AGCTGGCA,0.0685
19,AACATCCC,0.0765
20,GGGCATGA,0.087
21,ATGAAAGG,0.0761
22,CGGGGAAA,0.0698
23,ACCGACGG,0.0644
24,CGGGAACG,0.0714
25,CACCCCGC,0.0823

row,Sequence,binding signal (normalized occupancy)
1,ACCGAATA,0.0807
2,ACTTGTGA,0.0794
3,AGGCGGTG,0.0732
4,ACCGTAGT,0.0692
5,AGACTGGG,0.0695
6,AGCACATC,0.0841
7,GAGGCAGA,0.0719
8,CAATCTAA,0.0757
9,ACTGTACA,0.0773
10,TCGTGCCA,0.0874
11,GTCTCAAC,0.0731
12,GCCTCCCA,0.0696
13,ACCAGCAC,0.0771
14,ACGTAGCC,0.0725
15,TAGCGTCA,0.0779
16,AAGGTTGT,0.0756
17,AAGTACGC,0.0681
18,TAGATTGA,0.0791
19,CTTGGACA,0.0694
20,CTGATTGA,0.0743
21,CTTTCACC,0.0747
22,CTACTGAA,0.0695
23,AATTGCCA,0.0744
24,ACGACGCC,0.0744
25,GCTTATTA,0.082

row,Sequence,binding signal (normalized occupancy)
1,AACGCTTA,0.0733
2,ACTGACGG,0.0729
3,GACGGATA,0.0752
4,CCAGTCAA,0.0719
5,ACCCCAAT,0.0832
6,TAGGTAAA,0.0721
7,ACAAGCTC,0.0721
8,GAATGTGC,0.0815
9,CTAAGGAC,0.0719
10,GCTCCAGC,0.0704
11,CCGAAAAC,0.0743
12,TTAACCAA,0.0791
13,GACACAGC,0.0745
14,GAGGTTCC,0.0746
15,GATAGGCA,0.0772
16,ACGCCACC,0.0799
17,GCCACGGC,0.0738
18,ATCCAGAT,0.0777
19,AATCGCGA,0.0731
20,TCAGGCCA,0.0733
21,CCAGTGAG,0.0717
22,GCCAGGAC,0.0757
23,ATTGATAG,0.0767
24,CTTGCCGA,0.0676
25,ATCTCCGA,0.0738

row,Sequence,binding signal (normalized occupancy)
1,AACAAATA,0.0809
2,AAACTTGC,0.0748
3,CTAAGCTA,0.0708
4,ATGTAGTG,0.0796
5,AAGCCCCT,0.0709
6,ATTAGCCA,0.0766
7,CGCCCGAA,0.0715
8,ATCACCAG,0.0723
9,CCGGCCTC,0.0687
10,GTTGGAAA,0.0748
11,CGATCTCC,0.0714
12,CCCGCGTC,0.0709
13,ACGGATGC,0.0722
14,AACCGGGG,0.072
15,GATGCCGA,0.0738
16,GACCTAGC,0.0704
17,CCGGGTAG,0.0691
18,CACGCGAC,0.131
19,GTTCGCAA,0.0745
20,ATGTATAC,0.0915
21,ACTTGCCC,0.0727
22,CGGAACCC,0.0682
